Test results published in PubChem BioAssay AID651820 (National Center for Advancing Translational Sciences (NCATS), 2012).
Among all 340,000 compounds or so, about 12,000 (3.5%) were called active. This list was built around the results that the source calls inconclusive (neither active nor inactive); the mix of calls is not that of the screen. Calls come from the whole dose curve; as a rule, active = well fitted inhibition curve with a large enough effect; inconclusive = small, poorly fitted or top-dose-only effect, or another doubt; inactive = no such curve, though single readings can be large or run the other way. No potency is given beside an inconclusive call; the fits are too rough.

Assay: qHTS Assay for Inhibitors of Hepatitis C Virus (HCV)
Conditions: Huh7.5.1 HCVcc-Cre (HCVcc is cell-culture hepatitis C virus) infection, luciferase reporter, 44 h; activity change, negative = inhibition: at 41.8 µM (top of the series)
In short: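 Compounds are dispensed onto cells plated 4 h earlier at 1,000 per well, with HCVcc-Cre virus (about 0.5 moi) added next. Following 44 h of culture, luminescent signal is measured for 15 sec after 15 min with substrate at room temperature.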
% is set by controls: 0 for no effect and ±100 for the full control effect; potency is the fitted concentration of half-maximal effect; tags give direction and shape of the fitted curve.

Row | Compound | Potency | activity change, negative = inhibition
1 | Cc1nn(C(C)C)c(C)c1CN1CCC(C(=O)Nc2cccc(-c3cccc(F)c3)c2)CC1 | active: 10 µM | –
2 | COCCNC(=O)NC1(C(F)(F)F)Oc2ccc(Cl)cc2O1 (stereo not drawn) | inconclusive [inhibitor, partial curve] | –
3 | O=C(NCCC(=O)N1CCN(C(=O)c2ccco2)CC1)c1ccc(Br)cc1 | – | inactive: -8.63%
4 | COCc1nnc(NC(=O)c2ccc(S(=O)(=O)N3CCCCCC3)cc2)o1 | – | inactive: -7.49%
5 | Cc1ccc(-c2csc(N)n2)cc1 | – | inactive: -4.49%
6 | CCOC(=O)C1(CCOc2ccccc2)CCN(Cc2cccs2)CC1 | inconclusive [inhibitor, single point] | –
7 | O=C(N/N=C/c1ccc(Cl)cc1)c1cc(-c2cccnc2)nc2ccccc12 | inconclusive [inhibitor, partial curve] | –
8 | O=C(Nc1cnccn1)c1csc2ccccc12 | – | inactive: 7.89%
9 | S=c1nc(-c2ccco2)[nH][nH]1 | – | inactive: 7.9%
10 | COC(=O)c1ccc(C(=O)OC)c(NC(=O)COC(=O)C23CC4CC(CC(O)(C4)C2)C3)c1 | inconclusive [inhibitor, partial curve] | –
11 | C(=N\c1nc2ccccc2n1CCN1CCCCC1)/c1ccc2c(c1)OCO2 | inconclusive [inhibitor, single point] | –
12 | Cc1ccc(CSCC(=O)N2CCCC2)cc1 | – | inactive: 4.26%
13 | FC(F)Oc1ccc(-c2csc(NNC3=NCCCCC3)n2)cc1 | inconclusive [inhibitor, single point] | –
14 | CCCNC(=S)Nc1ccc(F)cc1F | – | inactive: -26.9%
15 | OCCC1CN(Cc2nc3c(s2)CCCC3)CCN1Cc1ccccc1 (stereo not drawn) | – | inactive: -11.5%
16 | CCNc1nc(CN2CCCCC2)nc2scc(-c3ccccc3)c12 | active: 10 µM | –
17 | Cc1ccc2c(CSc3nnnn3C)cc(=O)oc2c1 | inconclusive [inhibitor, full curve, poor fit] | –
18 | N#C/C(=C1\CCCN1)c1nc(-c2ccccc2)cs1 | active: 6.31 µM | –
19 | O=C(CN1CCC(NC(=O)c2ccccc2)CC1)NCc1ccccc1F | – | inactive: 13.9%
20 | COCCN(C(=O)COC(=O)CCC(=O)c1cccs1)c1c(N)n(Cc2ccccc2)c(=O)[nH]c1=O | – | inactive: 6.56%
21 | CCCCN(CC)CCNC(=O)c1cc2c(-c3ccc(Cl)cc3)nn(C)c2s1 | active: 2.82 µM | –
22 | c1ccc2c(c1)CC1CNCc3cccc(c31)S2 (stereo not drawn) | inconclusive [inhibitor, single point] | –
23 | O=[N+]([O-])c1ccccc1S(=O)(=O)Nc1ccc(-c2ccc(N3CCOCC3)nn2)cc1 | – | inconclusive: -49.9% [inhibitor]
24 | OCCC1CN(Cc2ccc(Oc3ncccn3)cc2)CCN1C1CCCCC1 (stereo not drawn) | – | inactive: 6.88%
25 | CC(=O)Nc1ccc(SC[C@H](Cc2ccccc2)N2CC[C@@H](C(C)(C)C)CCC2=O)cc1 | inconclusive [inhibitor, single point] | –

Row | Compound | Potency | activity change, negative = inhibition
26 | COc1ccc(CCN=C(NS(=O)(=O)c2ccc(Cl)cc2)c2ccccc2)cc1 | inconclusive [inhibitor, partial curve] | –
27 | CC1(C)CC(NC(=S)Nc2ccc([N+](=O)[O-])cc2)CC(C)(C)N1 | inconclusive [inhibitor, single point] | –
28 | O=C(Nc1ccc(Cl)cc1)N(Cc1cccnc1)Cc1ccco1 | inconclusive [inhibitor, full curve, poor fit] | –
29 | O=C(Cc1cccs1)Nc1cccc(-c2nc3cc4ccccc4cc3[nH]2)c1 | active: 11.2 µM | –
30 | CCN(Cc1ccc2c(c1)OCCO2)C(=O)CSc1nc(C)nc2sc(C)c(C)c12 | inconclusive [inhibitor, partial curve] | –
31 | CC(C)N1CCN(Cc2ccc(OC3CCCC3)cc2)CC1CCO (stereo not drawn) | inconclusive [inhibitor, partial curve, poor fit] | –
32 | COc1ccccc1C(=O)NC(CCSC)C(=O)NCCCSc1ccccc1 (stereo not drawn) | inconclusive [inhibitor, single point] | –
33 | O=C(Nc1ccc2c3c(cccc13)CC2)c1ccc(Br)o1 | inconclusive [inhibitor, single point] | –
34 | O=C(CCc1nc2ccccc2c(=O)[nH]1)Nc1nnc(SCc2ccccc2)s1 | inconclusive [inhibitor, single point] | –
35 | COc1ccccc1NC(=O)Cn1nnc(-c2ccccc2NS(=O)(=O)c2ccccc2)n1 | inconclusive [inhibitor, partial curve] | –
36 | CCC1CCCCN1C(=S)NC(=O)c1ccc([N+](=O)[O-])cc1 (stereo not drawn) | inconclusive [inhibitor, full curve, poor fit] | –
37 | COc1cc2c(cc1NC(=O)Cc1ccc(C)cc1)oc1ccccc12 | active: 10 µM | –
38 | O=C(CCC(=O)Nc1ccc(Cl)cc1Cl)NNC(=O)Nc1ccccc1 | inconclusive [inhibitor, single point] | –
39 | COc1cccc(CC(NC(C)=O)C(=O)NC2CCN(c3c(Cc4ccccc4)c(C)nc4ncnn34)CC2)c1 (stereo not drawn) | – | inactive: -0.738%
40 | O=C(COC(=O)/C=C/c1cccc(C(F)(F)F)c1)NC(=O)NCc1ccco1 | inconclusive [inhibitor, single point] | –
41 | CCNc1nc(Nc2ccc(C)c(Cl)c2)c2cnn(C)c2n1 | active: 14.1 µM | –
42 | O=C(CCCn1c(=S)[nH]c2cc3c(cc2c1=O)OCO3)N1CCN(c2ccc(Cl)cc2)CC1 | active: 12.6 µM | –
43 | CCOc1cc(C=O)ccc1OCC(=O)NC(C)(C)C | – | inactive: -7.42%
44 | S=c1nc(C2COc3ccccc3O2)[nH][nH]1 (stereo not drawn) | – | inactive: 9.07%
45 | O=C1C=C(/C=C/C2C=CC=CC2)C[C@@H](c2ccc(Cl)cc2)C1 (stereo partly drawn) | inconclusive [inhibitor, single point] | –
46 | CCOc1ccc(Oc2ccc(NC(=O)[C@@H](NC(N)=O)[C@@H](C)CC)cc2)cc1 | inconclusive [inhibitor, single point] | –
47 | CC(=O)NC(c1ccc(Cl)cc1Cl)c1ccc2cccnc2c1O (stereo not drawn) | active: 5.62 µM | –
48 | Cc1c(NCc2cc(Cl)cc(Cl)c2O)c(=O)n(-c2ccccc2)n1C | inconclusive [inhibitor, partial curve, poor fit] | –
49 | O=c1ccc(S(=O)(=O)N2CCCC2)cn1Cc1nc(-c2ccc(F)cc2)no1 | inconclusive [inhibitor, single point] | –
50 | O=C(CSc1nnc(Cc2cc(=O)[nH]c(=O)[nH]2)n1-c1ccc(F)cc1)NC1CCCC1 | – | inactive: -1.52%

Row | Compound | Potency | activity change, negative = inhibition
51 | COc1ccc(CNC(=O)COc2cc(O)c3c(c2)OC(C)(C)CC3=O)cc1 | inconclusive [inhibitor, full curve, poor fit] | –
52 | O=c1c2ccccc2nc(/C=C/c2cccc([N+](=O)[O-])c2)n1CCO | inconclusive [inhibitor, partial curve] | –
53 | Cc1nc(NCc2ccccn2)c2ccccc2n1 | active: 10 µM | –
54 | OC(COc1cccc2ccccc12)CN1CCOCC1 (stereo not drawn) | – | inactive: 5.42%
55 | COc1cccc(N2CCN(c3ccc(N4C(=O)CCC4=O)cc3[N+](=O)[O-])CC2)c1 | inconclusive [inhibitor, single point] | –
56 | Cc1ccc(/C(N)=N/OC(=O)N2CCOCC2)cc1 | inconclusive [inhibitor, single point] | –
57 | COC(=O)/C(=C\Nc1ccc(Cl)cc1Cl)NC(=O)c1ccc(OC)cc1 | inconclusive [inhibitor, partial curve, poor fit] | –
58 | Cc1cccc(S(=O)(=O)Nc2cc(Cl)ccc2N2CCOCC2)c1 | – | inactive: 8.17%
59 | O=C(NC(=C(Cl)Cl)S(=O)(=O)c1ccc(Cl)cc1)c1ccccc1 | inconclusive [inhibitor, single point] | –
60 | CCOC(=O)c1ccccc1NC(=O)Cn1c(-c2nonc2N)nc2ccccc21 | inconclusive [inhibitor, full curve] | –
61 | Nc1ccc(C(=O)Nc2cccc(NC(=O)c3ccc(N)cc3)c2)cc1 | – | inactive: 9.89%
62 | COc1cc(C(=O)NC(=S)Nc2ccc([N+](=O)[O-])cc2C)cc(OC)c1OC | inconclusive [inhibitor, single point] | –
63 | CCN1C(=O)c2cccc3c(S(=O)(=O)N(C(=O)c4ccncc4)c4ccc(OC)cc4)ccc1c23 | inconclusive [inhibitor, partial curve] | –
64 | Cc1ccc(N/C(N)=N/c2nc(CSc3ccccn3)cc(=O)[nH]2)c(C)c1 | inconclusive [inhibitor, single point] | –
65 | CCOC(=O)C1CCCN(S(=O)(=O)c2ccc(S(=O)(=O)N3CCCC3)cc2)C1 (stereo not drawn) | active: 1.41 µM | –
66 | CSc1nc(-c2ccc(Cl)cc2)c(C#N)c(=O)[nH]1 | – | inactive: 3.75%
67 | Cc1ccc(SCCOCCN2CCc3ccccc3C2)cc1 | inconclusive [inhibitor, full curve, poor fit] | –
68 | CCOc1cc(Br)cc(/C=C2\SC(=Nc3ccccc3)NC2=O)c1O | inconclusive [inhibitor, single point] | –
69 | CCn1c(=O)cc(SCC(=O)N2CCC(C)CC2)c2ccccc21 | inconclusive [inhibitor, partial curve] | –
70 | Cc1cc(C)c(NC(=O)c2cccc3c2C(=O)N(C2CCCCC2)C3)c(C)c1 | inconclusive [inhibitor, single point] | –
71 | COc1cc(/C=C(\C#N)c2nc3ccc(C)cc3[nH]2)cc([N+](=O)[O-])c1O | – | inactive: 8.77%
72 | CCc1nc(CN2CCCC(C(=O)c3ccc4c5c(cccc35)CC4)C2)c(C)[nH]1 (stereo not drawn) | active: 10 µM | –
73 | CCN(CC)c1ccc(NC(=O)c2cnn(CC)c2)cc1 | inconclusive [inhibitor, single point] | –
